Results from the supplement of paper PMC7125110.
± gives the standard error. Variants at the background level are over-represented here.

B1: glmS ribozyme (parent)
chain: AUAAAAGCGCCAGAACUACAGAAAUGUAGUUGACGAGGAGGAGGUUUAUCGAAUUUUCGGCGGAUGCCUCCAAA

Variants of: B1
Assay: self-cleavage kobs at 160 uM GlcN6P; higher = faster cleavage; RNA array
Details: with glucosamine-6-phosphate
How it was run: (§1)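 Barcoded glmS ribozyme variants on sequenced MiSeq chips were transcribed in situ by E. coli RNA polymerase and tracked through a hybridised Cy3 probe at 37 °C. Glucosamine-6-phosphate (40 μM to 10 mM) in HEPES/KCl/Mg(OAc)2 buffer was flowed in, and tiles were imaged over ~14 h. Signals were normalised to baseline and to non-cleaving reference variants; per-tile medians were fit to one- or two-exponential decays to give kobs. kcat and KM came from weighted Michaelis–Menten fits across concentrations.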
For G7C C8G G32C U54A, the “self-cleavage kobs at 160 uM GlcN6P” value was less than 1e-05 s⁻¹.
In the case of G7C G41U G43C, the “self-cleavage kobs at 160 uM GlcN6P” value is reported as less than 1e-05 s⁻¹.
In the case of G7U G35U G66U U69C, the “self-cleavage kobs at 160 uM GlcN6P” value is reported as less than 1e-05 s⁻¹.
In the case of C8A G60A C68A, the “self-cleavage kobs at 160 uM GlcN6P” value is reported as less than 1e-05 s⁻¹.
In the case of C8G A39G, the “self-cleavage kobs at 160 uM GlcN6P” value is reported as less than 1e-05 s⁻¹.
With C8G U30G A42C C58U the “self-cleavage kobs at 160 uM GlcN6P” value was less than 1e-05 s⁻¹.
In the case of C8G U31A, the “self-cleavage kobs at 160 uM GlcN6P” value is reported as less than 1e-05 s⁻¹.
For C8U A12U U30G A33U C61G, the “self-cleavage kobs at 160 uM GlcN6P” value was less than 1e-05 s⁻¹.
In the case of C8U C10U A12C G32A C61U G63A C67G C71G, the “self-cleavage kobs at 160 uM GlcN6P” value is reported as less than 1e-05 s⁻¹.
C8U G13U G43A C61G was tested, and the “self-cleavage kobs at 160 uM GlcN6P” value was less than 1e-05 s⁻¹.
For G9A A12U A33C G62U, the “self-cleavage kobs at 160 uM GlcN6P” value was less than 1e-05 s⁻¹.
With G9A C11U A15U U31G G35C A42U the “self-cleavage kobs at 160 uM GlcN6P” value was less than 1e-05 s⁻¹.
For G9C C50G, the “self-cleavage kobs at 160 uM GlcN6P” value was 0.00045 ± 0.00018 s⁻¹.
G9C G32U A39C C71G was tested, and the “self-cleavage kobs at 160 uM GlcN6P” value was less than 1e-05 s⁻¹.
In the case of G9U A12G U46C, the “self-cleavage kobs at 160 uM GlcN6P” value is reported as less than 1e-05 s⁻¹.
In the case of G9U G37U C50U C67U, the “self-cleavage kobs at 160 uM GlcN6P” value is reported as less than 1e-05 s⁻¹.
With G9U U49C the “self-cleavage kobs at 160 uM GlcN6P” value was less than 1e-05 s⁻¹.
C10A C34U G43C U56C A64C was tested, and the “self-cleavage kobs at 160 uM GlcN6P” value was less than 1e-05 s⁻¹.
In the case of C10U A33U G38C U69A, the “self-cleavage kobs at 160 uM GlcN6P” value is reported as less than 1e-05 s⁻¹.
For C10U G37U U57A, the “self-cleavage kobs at 160 uM GlcN6P” value was less than 1e-05 s⁻¹.
For C10U U47G, the “self-cleavage kobs at 160 uM GlcN6P” value was less than 1e-05 s⁻¹.
In the case of C11A A12G G32U C50U, the “self-cleavage kobs at 160 uM GlcN6P” value is reported as less than 1e-05 s⁻¹.
In the case of C11A A14C U31G U65G, the “self-cleavage kobs at 160 uM GlcN6P” value is reported as less than 1e-05 s⁻¹.
For C11U C16U G51C C70U, the “self-cleavage kobs at 160 uM GlcN6P” value was less than 1e-05 s⁻¹.
With A12C C34U the “self-cleavage kobs at 160 uM GlcN6P” value was less than 1e-05 s⁻¹.
In the case of A12G G63C, the “self-cleavage kobs at 160 uM GlcN6P” value is reported as less than 1e-05 s⁻¹.
A12U C61A G63C C70U was tested, and the “self-cleavage kobs at 160 uM GlcN6P” value was 3.45e-05 ± 1.3e-05 s⁻¹.
In the case of G13A A39G C68A, the “self-cleavage kobs at 160 uM GlcN6P” value is reported as less than 1e-05 s⁻¹.
G13C G38A was tested, and the “self-cleavage kobs at 160 uM GlcN6P” value was less than 1e-05 s⁻¹.
In the case of G13C U65C C70U, the “self-cleavage kobs at 160 uM GlcN6P” value is reported as less than 1e-05 s⁻¹.
With A14C C34G the “self-cleavage kobs at 160 uM GlcN6P” value was less than 1e-05 s⁻¹.
For A14C U45A U57A, the “self-cleavage kobs at 160 uM GlcN6P” value was less than 1e-05 s⁻¹.
With A14U A15C A48C U56A C67A the “self-cleavage kobs at 160 uM GlcN6P” value was less than 1e-05 s⁻¹.
A15G A39U A64U was tested, and the “self-cleavage kobs at 160 uM GlcN6P” value was less than 1e-05 s⁻¹.
With A15G A42C the “self-cleavage kobs at 160 uM GlcN6P” value was less than 1e-05 s⁻¹.
With A15U G38C the “self-cleavage kobs at 160 uM GlcN6P” value was less than 1e-05 s⁻¹.
With A15U U31G G62U the “self-cleavage kobs at 160 uM GlcN6P” value was less than 1e-05 s⁻¹.
For C16G G41C G59A, the “self-cleavage kobs at 160 uM GlcN6P” value was less than 1e-05 s⁻¹.
With G29U A42U A48U G62A the “self-cleavage kobs at 160 uM GlcN6P” value was less than 1e-05 s⁻¹.
For U30A A39G A48G C61U, the “self-cleavage kobs at 160 uM GlcN6P” value was less than 1e-05 s⁻¹.
U30A G37U A48U C58A G66U was tested, and the “self-cleavage kobs at 160 uM GlcN6P” value was less than 1e-05 s⁻¹.
With U31A A42U C50G the “self-cleavage kobs at 160 uM GlcN6P” value was less than 1e-05 s⁻¹.
G32A G51C G66U was tested, and the “self-cleavage kobs at 160 uM GlcN6P” value was less than 1e-05 s⁻¹.
In the case of G32C G38U G43A C67A, the “self-cleavage kobs at 160 uM GlcN6P” value is reported as less than 1e-05 s⁻¹.
G32U A33C U47G was tested, and the “self-cleavage kobs at 160 uM GlcN6P” value was less than 1e-05 s⁻¹.
G32U G43U was tested, and the “self-cleavage kobs at 160 uM GlcN6P” value was less than 1e-05 s⁻¹.
In the case of A33C U49C U54A C68U, the “self-cleavage kobs at 160 uM GlcN6P” value is reported as less than 1e-05 s⁻¹.
For A33G U47G A48G, the “self-cleavage kobs at 160 uM GlcN6P” value was less than 1e-05 s⁻¹.
With A33U A42C C50U the “self-cleavage kobs at 160 uM GlcN6P” value was less than 1e-05 s⁻¹.
For C34A G44U A53C U55G, the “self-cleavage kobs at 160 uM GlcN6P” value was less than 1e-05 s⁻¹.
In the case of C34A U57G, the “self-cleavage kobs at 160 uM GlcN6P” value is reported as less than 1e-05 s⁻¹.
In the case of C34G G38U G44C U49C, the “self-cleavage kobs at 160 uM GlcN6P” value is reported as less than 1e-05 s⁻¹.
C34G U56C was tested, and the “self-cleavage kobs at 160 uM GlcN6P” value was less than 1e-05 s⁻¹.
In the case of G35A C68U, the “self-cleavage kobs at 160 uM GlcN6P” value is reported as less than 1e-05 s⁻¹.
G35C G38C was tested, and the “self-cleavage kobs at 160 uM GlcN6P” value was less than 1e-05 s⁻¹.
In the case of A36C A64G, the “self-cleavage kobs at 160 uM GlcN6P” value is reported as less than 1e-05 s⁻¹.
For A36C U55C C67U, the “self-cleavage kobs at 160 uM GlcN6P” value was less than 1e-05 s⁻¹.
With G37C U45G U57A G60A the “self-cleavage kobs at 160 uM GlcN6P” value was less than 1e-05 s⁻¹.
In the case of G37U A48C, the “self-cleavage kobs at 160 uM GlcN6P” value is reported as less than 1e-05 s⁻¹.
In the case of G37U G62C, the “self-cleavage kobs at 160 uM GlcN6P” value is reported as less than 1e-05 s⁻¹.

Variants of: B1
Assay: self-cleavage kobs at 2500 uM GlcN6P; higher = faster cleavage; RNA array
Details: with glucosamine-6-phosphate
How it was run: as §1
With G7C C8G G32C U54A the “self-cleavage kobs at 2500 uM GlcN6P” value was less than 1e-05 s⁻¹.
In the case of G7C G41U G43C, the “self-cleavage kobs at 2500 uM GlcN6P” value is reported as less than 1e-05 s⁻¹.
In the case of C8A G60A C68A, the “self-cleavage kobs at 2500 uM GlcN6P” value is reported as less than 1e-05 s⁻¹.
In the case of C8G A39G, the “self-cleavage kobs at 2500 uM GlcN6P” value is reported as less than 1e-05 s⁻¹.
With C8G U30G A42C C58U the “self-cleavage kobs at 2500 uM GlcN6P” value was less than 1e-05 s⁻¹.
With C8G U31A the “self-cleavage kobs at 2500 uM GlcN6P” value was less than 1e-05 s⁻¹.
C8U C10U A12C G32A C61U G63A C67G C71G was tested, and the “self-cleavage kobs at 2500 uM GlcN6P” value was less than 1e-05 s⁻¹.
In the case of G9U A12G U46C, the “self-cleavage kobs at 2500 uM GlcN6P” value is reported as less than 1e-05 s⁻¹.
With C10A C34U G43C U56C A64C the “self-cleavage kobs at 2500 uM GlcN6P” value was less than 1e-05 s⁻¹.
C10U A33U G38C U69A was tested, and the “self-cleavage kobs at 2500 uM GlcN6P” value was less than 1e-05 s⁻¹.
With C10U G37U U57A the “self-cleavage kobs at 2500 uM GlcN6P” value was less than 1e-05 s⁻¹.
C11U C16U G51C C70U was tested, and the “self-cleavage kobs at 2500 uM GlcN6P” value was less than 1e-05 s⁻¹.
With A12C C34U the “self-cleavage kobs at 2500 uM GlcN6P” value was less than 1e-05 s⁻¹.
For A12U C61A G63C C70U, the “self-cleavage kobs at 2500 uM GlcN6P” value was 4.79e-05 ± 1.7e-05 s⁻¹.
With G13C G38A the “self-cleavage kobs at 2500 uM GlcN6P” value was less than 1e-05 s⁻¹.
G13C U65C C70U was tested, and the “self-cleavage kobs at 2500 uM GlcN6P” value was less than 1e-05 s⁻¹.
With A14C C34G the “self-cleavage kobs at 2500 uM GlcN6P” value was less than 1e-05 s⁻¹.
With A15U U31G G62U the “self-cleavage kobs at 2500 uM GlcN6P” value was less than 1e-05 s⁻¹.
G29U A42U A48U G62A was tested, and the “self-cleavage kobs at 2500 uM GlcN6P” value was less than 1e-05 s⁻¹.
U30A A39G A48G C61U was tested, and the “self-cleavage kobs at 2500 uM GlcN6P” value was less than 1e-05 s⁻¹.
U30A G37U A48U C58A G66U was tested, and the “self-cleavage kobs at 2500 uM GlcN6P” value was less than 1e-05 s⁻¹.
In the case of U31A A42U C50G, the “self-cleavage kobs at 2500 uM GlcN6P” value is reported as less than 1e-05 s⁻¹.
With G32C G38U G43A C67A the “self-cleavage kobs at 2500 uM GlcN6P” value was less than 1e-05 s⁻¹.
G32U G43U was tested, and the “self-cleavage kobs at 2500 uM GlcN6P” value was less than 1e-05 s⁻¹.
In the case of A33U A42C C50U, the “self-cleavage kobs at 2500 uM GlcN6P” value is reported as less than 1e-05 s⁻¹.
G35A C68U was tested, and the “self-cleavage kobs at 2500 uM GlcN6P” value was less than 1e-05 s⁻¹.
With G35C G38C the “self-cleavage kobs at 2500 uM GlcN6P” value was less than 1e-05 s⁻¹.
With A36C A64G the “self-cleavage kobs at 2500 uM GlcN6P” value was less than 1e-05 s⁻¹.
A36C U55C C67U was tested, and the “self-cleavage kobs at 2500 uM GlcN6P” value was less than 1e-05 s⁻¹.
With G37C U45G U57A G60A the “self-cleavage kobs at 2500 uM GlcN6P” value was less than 1e-05 s⁻¹.

Variants of: B1
Assay: self-cleavage kobs at 10000 uM GlcN6P; higher = faster cleavage; RNA array
Details: with glucosamine-6-phosphate
How it was run: as §1
With C8G A39G the “self-cleavage kobs at 10000 uM GlcN6P” value was less than 1e-05 s⁻¹.
C8G U31A was tested, and the “self-cleavage kobs at 10000 uM GlcN6P” value was less than 1e-05 s⁻¹.
G9U U49C was tested, and the “self-cleavage kobs at 10000 uM GlcN6P” value was less than 1e-05 s⁻¹.
In the case of C11A A14C U31G U65G, the “self-cleavage kobs at 10000 uM GlcN6P” value is reported as 2.62e-05 ± 1.2e-05 s⁻¹.
A12C C34U was tested, and the “self-cleavage kobs at 10000 uM GlcN6P” value was less than 1e-05 s⁻¹.
For A12G G63C, the “self-cleavage kobs at 10000 uM GlcN6P” value was less than 1e-05 s⁻¹.
With A14C C34G the “self-cleavage kobs at 10000 uM GlcN6P” value was less than 1e-05 s⁻¹.
In the case of A33C U49C U54A C68U, the “self-cleavage kobs at 10000 uM GlcN6P” value is reported as less than 1e-05 s⁻¹.
In the case of A36C U55C C67U, the “self-cleavage kobs at 10000 uM GlcN6P” value is reported as less than 1e-05 s⁻¹.
G37U A48C was tested, and the “self-cleavage kobs at 10000 uM GlcN6P” value was less than 1e-05 s⁻¹.
